Molecules are shown by their SMILES. Among all 340,000 compounds or so, about 6,900 (2%) were called active. Cut-off read from the data, not from the text of the source: active = inhibition above about 30%; inactive = below that, where a call was filed. The entries are a selection whose mix differs from that of the whole data set. Where no call is shown, the source filed none.

This assay concerns the target D(2) dopamine receptor (Homo sapiens) (UniProt P14416). Put plainly: HTS Assay for Allosteric Antagonists of the Human D2 Dopamine Receptor: Primary Screen for Antagonists. Note: 0% is about no effect. Particulars: HEK293 TREx D2 cells, calcium flux, dopamine EC80; at 10 µM; stronger effect = higher value. Summed up: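 Calcium mobilization kinetics were recorded at 1 s intervals in tetracycline-induced HEK293 T-REx D2 cells, first for 180 s after compound addition and then 180 s after EC80 dopamine.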
Chain of UniProt P14416 (P14416 whole entry, looked up): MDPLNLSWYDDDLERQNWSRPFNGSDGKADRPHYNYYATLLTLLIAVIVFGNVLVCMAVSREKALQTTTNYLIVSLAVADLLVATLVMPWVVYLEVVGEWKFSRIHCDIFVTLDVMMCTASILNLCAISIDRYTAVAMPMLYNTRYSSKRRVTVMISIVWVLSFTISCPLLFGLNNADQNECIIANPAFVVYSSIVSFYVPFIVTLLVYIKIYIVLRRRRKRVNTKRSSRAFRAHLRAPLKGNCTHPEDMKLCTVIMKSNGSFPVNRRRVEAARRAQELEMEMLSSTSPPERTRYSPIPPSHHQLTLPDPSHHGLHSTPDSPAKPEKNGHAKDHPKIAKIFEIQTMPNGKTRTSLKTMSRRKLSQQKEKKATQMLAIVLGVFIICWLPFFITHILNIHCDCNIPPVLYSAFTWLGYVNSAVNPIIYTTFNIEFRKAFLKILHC
What is called inhibition is the drop in the measured response relative to a control, in per cent. With `CCn1nnc2cc(C(=O)Nc3ccc(Cl)cc3C)ccc21`, the inhibition is 5.82%.
As to `Cc1nc(-c2ccc(S(=O)(=O)Nc3ccc(C#N)cc3)cc2)co1`, the inhibition is 12.6%.
Consider `COC(=O)c1ccc(NC(=O)CSc2nc(C)cc(C)c2C(=O)Nc2ccccc2)cc1`, for which the inhibition is -16.1%.
In the case of `O=C(O)c1ccc(N2CCCS2(=O)=O)cc1`, the inhibition was active: 34.3%.
Under `CCOc1ccc(/C=C/C(=O)Nc2sc3c(c2C(=O)OC)C(C(=O)OC)CC3)cc1` (stereo not given) stands 5.17%; under `COc1cc(NS(=O)(=O)c2cnc(N)nc2)cc(OC)c1`, -2.59%; under `CCOc1ccccc1CNc1ccc2cc(S(=O)(=O)N3CCC(C)CC3)ccc2n1`, 2.53%.
In the case of `COc1ccc(-c2nn3c(=O)cc(CN4CCN(C(=O)c5ccc(OC)c(OC)c5)CC4)nc3s2)cc1`, the inhibition worked out at 4.18%.
Regarding `COc1ccc(-c2noc(N(c3nc(-c4ccc(OC)c(OC)c4)no3)c3ccccc3OC)n2)cc1OC`, the inhibition is -2.52%.
With `CCOc1ccccc1NC(=O)c1ccc2c(Cl)c3c(nc2c1)CCC3` the figure was 17.1%.
On to `CC(C)(C)c1ccc(C(=O)Nc2ccc3c(c2)CCCN3C(=O)c2cccs2)cc1`, for which the inhibition came to 13.1%.
As for `CCc1ccc(NC(=O)Cn2c(=O)n(CCCCC(=O)NCc3ccc4c(c3)OCO4)c(=O)c3ccccc32)cc1`, the inhibition came out at 8.05%.
Regarding `CC(=O)c1cc(-c2ccccc2)n(CCC(=O)NCc2ccc(C)cc2)c1C`, the inhibition was -7.2%.
With `CN(C1CCCC1)C1CCN(C(=O)CNC(=O)/C=C/c2ccc(F)cc2)CC1` the figure was active: 84.8%; with `CCOc1ccccc1Nc1sc(C(=O)c2ccccc2)c(N)c1C(=O)Nc1ccccc1`, 9.73%.
Take `Cc1nnc(N2CCC(C(=O)N3CCCCC3)CC2)c2nn(-c3ccc(Cl)cc3)c(C)c12`: the inhibition was -7.22%.
With `Cc1ccc(NC(=O)c2nc(S(C)(=O)=O)ncc2N(Cc2ccco2)Cc2cccs2)c(C)c1` the figure was 15.8%.
With `Cc1ccc(OCC(=O)Nc2nnc(S(=O)(=O)N3c4ccccc4CC3C)s2)cc1` (stereo not given) the figure was 15.5%.
Take `Cc1ccc(C(=O)Nc2ccc(S(=O)(=O)N3CCC(c4nc5ccccc5s4)CC3)cc2)cc1`: the inhibition was -6.46%.
With `Cc1ccc(NC(=O)CSc2nc(=O)n(CCN3CCOCC3)c3c2CCC3)c(C)c1` the figure was -25.1%; with `CC(=O)N1CCc2nc3sc(C(=O)c4ccc(F)cc4)c(N)c3c(C(F)(F)F)c2C1`, -4.69%.
Turning to `CC(=O)Nc1ccc(NC(=O)C(C)OC(=O)c2ccccc2C(=O)c2ccc(Cl)c([N+](=O)[O-])c2)cc1` (stereo not given), the inhibition is active: 36.3%.
With `CC(=O)c1cccc(NC(=O)c2nc(-c3ccccc3)n(-c3cccc(Cl)c3)n2)c1` the figure was -21.3%; with `CCc1ccc(NC(=O)C(=O)NCC(c2cccnc2)N2CCN(c3ccc(F)cc3)CC2)cc1` (stereo not given), -23.2%; with `Cc1ccc(Cl)cc1NC(=O)Nc1nnc(N(C)Cc2ccccc2)s1`, 15.3%.

These data come from PubChem BioAssay AID485344 (National Center for Advancing Translational Sciences (NCATS), 2010).
